± gives the standard deviation of the averaged measurements. Over roughly 4,100 sequences, “arbitrary fluorescence units” has its median near 780; the highest 2% begin near 22,000. The list shows a part of the results.
biological target: T1, ETS1 (UniProt P14921); experiment: ETS1 binding intensity (PBM fluorescence), ETS1 alone (arbitrary fluorescence units); higher = stronger binding; conditions: ETS1 concentration 1 nM; RUNX1 concentration 0 nM
T1 sequence: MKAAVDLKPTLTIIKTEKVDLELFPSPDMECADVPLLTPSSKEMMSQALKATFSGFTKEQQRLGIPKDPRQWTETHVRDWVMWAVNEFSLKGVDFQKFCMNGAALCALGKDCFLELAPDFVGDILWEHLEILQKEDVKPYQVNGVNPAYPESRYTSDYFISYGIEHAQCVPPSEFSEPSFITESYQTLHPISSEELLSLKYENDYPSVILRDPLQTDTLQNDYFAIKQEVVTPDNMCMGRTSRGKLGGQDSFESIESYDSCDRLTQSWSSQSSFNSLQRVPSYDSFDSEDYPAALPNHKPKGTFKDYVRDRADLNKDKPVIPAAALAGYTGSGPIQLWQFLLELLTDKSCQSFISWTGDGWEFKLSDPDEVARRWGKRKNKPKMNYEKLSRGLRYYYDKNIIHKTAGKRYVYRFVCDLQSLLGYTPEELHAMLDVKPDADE
Method: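 gcPBM on 36-bp genomic-derived probes (partner site mutated) containing one ETS1 site and no RUNX1 site. Recombinant human ETS1 (1 nM) was incubated alone or with RUNX1 (25 nM) and detected by anti-ETS1 antibody fluorescence. Values are medians over 4 replicate spots (not normalised). The probes sit in constant array flanks that are not printed.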

Point of comparison: AGCTCATCCTGAGGCTGCCCACACGGCTGTAGGTCC, ETS1 binding intensity 762. Against it:
- ACAAGGAAACATTCAGAGGTTTTTAAGGTCAGGATT — lower, 366
- GAGGAGGAAGTGCGCTGGCTGTTCTGCTGCAGGCCG — higher, 1320
- GGAGAAATCGCAACTCGGAACTACGGAAACGGAGGA — lower, 516
- ATGGTCCAGGAAGATAAGGGCTGAAAAGCACCCACT — lower, 393
- CGTCCAGCAGCAAGGGAGAGCAGTTTCCTCCAGTGC — lower, 406
- GCGTTCCGCTGGTCGTGGGCTTTCAGCGCCCGCTGA — lower, 380
- CATGATGGAAAGCACCACCAGCACTTCCGGCCCTGG — higher, 7320
- AGATGGGCATCCTGTGAGCCTGGGGTTCTCAGCATT — higher, 2760
- ATCGGCGGTCCCCCAGGTCCCGGATGTCGCGGACAG — higher, 1030
- GGAGGGGCTGGCCGGAAGTGAACCGAAGAGCACGCT — higher, 16700
- GAGACTTTCGCTTCCGGCTGCCGTAGGCGCTTCGCT — higher, 9940
- TATATGTGACTTCTTATTGTGACTTACACTTCCTCA — lower, 567
- AGCAAAAAGTTCCGGGGAAGCCGAGACCTCGACCTT — lower, 753
- CAACTCCGGCGCCCTCAGGCCACTTCCGCCTATGTA — higher, 4590
- AGCTGTTTGTAGTTGTCACACCTAGTTTCCTCTGTC — lower, 574
- TTGATAGCAAACTACACTCGGCACAGGAAGGAGAAC — lower, 490
- TGCGCCGGGAGGAAGGGCTCCAAAACTACAGGGCGG — lower, 362
- GTTTGGTGTCGTTGCAGTACAGGATGCATAGTGAAG — higher, 764
- CCGCCCTGTAGTTTTGGAGCCCTTCCTCCCGGCGCA — lower, 432
- AGCACCCCAGGAAACCATCGCCTCAGCCCTCATATT — lower, 557
- TAGGACAGCGGATTTTCAGTCCGGAGATTCCGGCCA — lower, 368
- GGTGAAATTAACGACAGAAATAATGGGAAGTAGAGA — lower, 430
- AGCAAATCCAAAAAAAAAAAAAAAAAGAGGAAATAA — lower, 476
- TGGTCGCCGTTTGGAACTGCGCGGGAAGTGGGTGGT — lower, 327
- CTTGACTTAACTACAAGACAGGATGGGTTGATGAAG — lower, 426
- GTTGTCCGTGAGCACCAGCCCCAAAGGAAATGCCCT — lower, 483
- AAAACCCAAGCCACCCCTCAGGAAGCGTTAAGCAAG — lower, 344
- CAGGCTGCTTCCGGCGCGCGGCAGAGCGGCCAGAGC — higher, 17900
- CGCCTTCCGCCATCTTCTTCCACTAACGGTAGGGGA — higher, 3980
- AGCCGCTAAAGACCACCGCTTCCGGCCTCTGCTTAG — higher, 13000
- AGTTCTGGGCTCACCTGGAGGAGTTTCCTGGAGTGG — lower, 398
- CTCAAGAGCGCTTACGGGAGCCTCTCGGCTTCCGTC — lower, 358
- TAATTTTTTTTAAGCACTTCCAGGATATCTTGCCCA — lower, 570
- TGAGTCACATCCTGCAGGGCTTCGGTATCCTGGCTT — higher, 6840
- CCTTGGGCTTTGGGGTCTCCCACATCCGGCCTGCCC — higher, 5460
- TCCTGTCCCACTGGGGTTCCTGGGATGTTTGTTGTT — lower, 400
- TTTGCTATTCATGGTTCATTTCCTTTTCCTCCTTGT — higher, 1240
- TGCCGCGGATACCCAGCCAGCGGCAGTGCGCTTAAC — lower, 333
- TCAAAGACTCAGCGTTTACCCCCTTCCGGGCCGCGC — lower, 665
- CTTCCCTTGCCCCGGAAAAGGGCGGCAAGAGGGAGC — lower, 611
- TTCTGACTCACCTTCCTGTAGGTTGGATTTCTGCAT — higher, 1090
- ACTAGATTAATCACATCCACTTCCGGTGGGGCTGGA — higher, 15900
- GGCGCGGGCGCTGTCCGCCCTCTCTTCCGGAGGGCG — lower, 653 ± 10
- TGGGCATTGCCGCTTTCCAGCGGAAGGGGGCATCTT — lower, 628
- GCACCGTACCCGGAACTGCTCCCTCCCGCTGGCGCA — lower, 580
- CCGGAGGCCGTAGGCCGCTCAGGCTTCCGCTCCCAC — within error, 711 ± 58
- ACCAGAGAAGGAAATACACAGTAAACGCACTGCCTC — lower, 596
- GGCGGAACTTGTGCGTACGCTGGAAATCCGCTGGGG — lower, 533
- CCGCCCCCGGACGGTCACAGCACCCAAACAGCAGGC — lower, 455
- GGCGCAAGTTTCGGAGTTTCTGTTTCCTTTTTCCTC — lower, 531
- CTTTTTTGTGACTTACCAGAACCAATATCCGGCATT — higher, 1610
- TGTTTAGATGTGAGCACACCTGACATCCGCGGGCTC — lower, 432
- ACGACCGGAACGTGGACAACCAGGGGTTGTTCCTCC — lower, 504
- CCTCTTGGTTTCCTGTCCCTCACCTCAAGAAGCAGT — higher, 8280
- AGCTGCCAACAGCAGCGCTACTTCCGGCCGCCTCCG — higher, 17900
- AGGAGTGAGGAAGTGAGGCTGGCCTTGTAGGTGTGG — lower, 707
- AGGTGTAGGTGACTCAGAGCGGGCGGATGAGAACAG — lower, 450
- GCATGCGCCTTGCTCGGTACTCAGCTGACTTCCTGT — higher, 952
- ACAAAGTCAGTGGCAATGTGGAACGTCCGCCAAGAG — lower, 384
- GAGAAAGCAGCGCCCCAGCGCGCCTTCCGCCACGCC — lower, 328
- TCCACGGTGCCTCTAGGGGGCGGGGCTTCCGGCTGG — higher, 981
- CCGGATTGGTCCGGTTCCAGCGCCGAAGCCCGGCGG — lower, 354
